Among all 310,000 compounds or so, about 2,200 (0.71%) showed an effect of 50% or more. The effect is printed as a negative number. Some of the results follow.

The experiment deals with human ether-à-go-go-related gene (hERG) potassium channel (human, UniProt Q12809). In words: primary screen, population patch clamp on CHO cells stably expressing hERG.
Chain of human ether-à-go-go-related gene (hERG) potassium channel (Q12809 whole entry, looked up): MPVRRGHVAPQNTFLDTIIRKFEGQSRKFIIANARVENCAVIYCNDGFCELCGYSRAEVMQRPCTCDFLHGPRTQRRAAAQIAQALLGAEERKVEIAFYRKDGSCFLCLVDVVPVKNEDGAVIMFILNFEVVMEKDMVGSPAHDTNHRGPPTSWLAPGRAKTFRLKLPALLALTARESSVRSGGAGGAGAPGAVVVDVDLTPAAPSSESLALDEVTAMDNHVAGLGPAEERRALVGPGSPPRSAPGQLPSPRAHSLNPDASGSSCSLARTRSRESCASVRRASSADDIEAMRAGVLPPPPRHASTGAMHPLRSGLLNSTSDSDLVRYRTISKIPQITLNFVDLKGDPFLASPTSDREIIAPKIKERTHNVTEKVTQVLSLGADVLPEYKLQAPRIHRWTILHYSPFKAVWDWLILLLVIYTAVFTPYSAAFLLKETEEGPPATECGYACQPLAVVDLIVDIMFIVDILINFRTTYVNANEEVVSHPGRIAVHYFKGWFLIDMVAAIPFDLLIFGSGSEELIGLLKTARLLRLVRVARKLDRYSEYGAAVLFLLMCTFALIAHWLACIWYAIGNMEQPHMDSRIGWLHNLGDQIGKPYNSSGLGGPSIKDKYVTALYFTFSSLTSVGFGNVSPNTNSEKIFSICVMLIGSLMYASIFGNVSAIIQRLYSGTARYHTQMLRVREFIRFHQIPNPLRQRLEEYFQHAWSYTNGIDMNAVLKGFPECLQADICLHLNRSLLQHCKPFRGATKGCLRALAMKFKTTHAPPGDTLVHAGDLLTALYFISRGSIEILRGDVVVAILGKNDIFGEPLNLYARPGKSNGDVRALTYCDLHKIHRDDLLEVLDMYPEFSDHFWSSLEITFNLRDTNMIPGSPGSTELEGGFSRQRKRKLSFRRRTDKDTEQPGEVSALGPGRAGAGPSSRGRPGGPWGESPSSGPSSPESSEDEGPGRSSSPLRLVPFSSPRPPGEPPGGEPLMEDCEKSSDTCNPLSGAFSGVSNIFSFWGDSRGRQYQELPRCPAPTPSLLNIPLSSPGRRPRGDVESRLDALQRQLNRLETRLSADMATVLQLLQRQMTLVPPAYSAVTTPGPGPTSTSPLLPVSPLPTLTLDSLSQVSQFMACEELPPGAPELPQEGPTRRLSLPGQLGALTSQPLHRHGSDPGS
As for `CCc1ccc(OCC(=O)Nc2cccc3nsnc23)cc1`, the “hERG current change (%, negative = inhibition) at 1uM” value came out at 5.64%. With `COC(=O)Nc1ccc(OC)c(OC)c1` the figure was 6.82%; with `CCCCNC(=O)CSc1nc(COc2ccccc2)nc2ccccc12`, 17.6%; with `CC1=Nc2cc(C(=O)NCC3CCCO3)ccc2Sc2ccc(Br)cc21` (stereo not drawn), 9.48%. As for `COC(Cc1nnc(SC)n1-c1ccc(Cl)cc1)OC`, the figure is 7.31%; as for `CCCCc1ccc(NC(=O)N[C@H](C(=O)O)C(C)CC)cc1` (stereo partly drawn), -0.822%. As for `O=C(/C=C\c1ccc2c(c1)OCO2)Nc1nnc(SCC(=O)OCc2ccccc2)s1`, the “hERG current change (%, negative = inhibition) at 1uM” value is on record as 7.47%. With `O=C(CCC(=O)NNC(=O)COc1ccc(Br)cc1)NCc1ccccc1` the figure was 20.4%; with `CC(CCc1ccc(O)cc1)NC1c2ccccc2-c2ccccc21` (stereo not drawn), 9.7%; with `CC(C)(C)c1nc2c(C#N)c(-c3ccc(Cl)cc3)ccn2n1`, 1.66%. In the case of `O=S(=O)(c1cccs1)N1CCC2(CC1)OCCO2`, the “hERG current change (%, negative = inhibition) at 1uM” value is on record as 12.1%.

`COC(=O)c1ccccc1S(=O)(=O)N1Cc2cc([N+](=O)[O-])ccc2Oc2ccccc21`: the “hERG current change (%, negative = inhibition) at 1uM” value stood at 15.8%.

On to `O=c1[nH]c2cc(Cl)ccc2n1-c1ccccc1`, for which the “hERG current change (%, negative = inhibition) at 1uM” value came out at 8.22%. As for `O=C(Cn1c(=O)[nH]c2ccsc2c1=O)NC1CCCCC1`, the figure is 6.32%; as for `Nc1c(-c2cccs2)cnn1-c1nc(-c2ccc(Cl)cc2Cl)cs1`, -10.9%; as for `CC(C)(C)NC(=O)C(c1ccc(Cl)cc1)N(CCO)C(=O)c1snc(C(N)=O)c1N` (stereo not drawn), 6.64%. As for `O=C1[C@H]2[C@@H](c3ccc(F)cc3)N3C(=O)N(c4ccc(Br)cc4)C(=O)[C@@]3(Cc3ccc(Cl)cc3)[C@H]2C(=O)N1C1CCCCC1`, the “hERG current change (%, negative = inhibition) at 1uM” value is given as 15.1%. Regarding `COc1cc(NS(=O)(=O)c2ccc3[nH]c(=O)[nH]c3c2)cc(OC)c1`, the “hERG current change (%, negative = inhibition) at 1uM” value is given as 19.7%. As for `CCN(C(=O)CSc1cc(C)c2ccccc2n1)c1c(N)n(Cc2ccccc2)c(=O)[nH]c1=O`, the figure is 12.8%; as for `COc1ccc(/C=N/NC(=O)C(N)=O)c(OC)c1OC`, 13.2%. In the case of `CCOc1ccc(CCNC(=O)c2nn(C)c3c2CS(=O)(=O)c2ccccc2-3)cc1`, the “hERG current change (%, negative = inhibition) at 1uM” value is 0.616%. As for `Cc1ccc(/C=N\n2c(-c3ccccc3)n[nH]c2=S)s1`, the figure is 10.7%; as for `CCCOc1ccc(C(=O)NC(=S)N2C[C@H]3C[C@H](C2)c2cccc(=O)n2C3)cc1`, -2.76%. For the molecule `O=C(CC1CCCCC1)c1c(O)c2ccccc2oc1=O`, the “hERG current change (%, negative = inhibition) at 1uM” value is recorded as -4.69%. `COc1ccc(C(=O)NC(=S)N2CCC(C)CC2)cc1`: the “hERG current change (%, negative = inhibition) at 1uM” value is listed as 14.3%. With `CCOc1ccc(NC(=S)N(CCOC)C(C)c2ccco2)cc1` (stereo not drawn) the figure was -2.26%.

Consider `O=C(NCc1cccc(C(F)(F)F)c1)c1ccc(=O)[nH]c1`, for which the “hERG current change (%, negative = inhibition) at 1uM” value is 16.7%. With `COc1ccc(N(Cc2ccccc2)S(=O)(=O)c2cccc(C(=O)Nc3ccccn3)c2)cc1` the figure was -16.5%. Turning to `Cc1noc(C(=O)Nc2cccnc2Cl)c1Cl`, the “hERG current change (%, negative = inhibition) at 1uM” value is given as 12.6%.

On to `CC1(C)CC=C(NNC(=O)c2cccnc2)C(=O)C1`, for which the “hERG current change (%, negative = inhibition) at 1uM” value stood at 19.6%.

For `CCc1ccccc1NC(=S)N1CCN(c2ccccn2)CC1`, the “hERG current change (%, negative = inhibition) at 1uM” value is reported as 10.6%.

As to `COc1ccc(Cl)cc1-c1n[nH]c(=S)o1`, the “hERG current change (%, negative = inhibition) at 1uM” value stood at 13.8%.

`COc1ccc(CNC(=O)[C@@H](NC(=O)C2CCN(S(=O)(=O)c3ccccc3)CC2)C(C)C)cc1`: the “hERG current change (%, negative = inhibition) at 1uM” value worked out at 25%.

In the case of `COCCCn1nnnc1SCC(=O)N1c2ccccc2CC1C` (stereo not drawn), the “hERG current change (%, negative = inhibition) at 1uM” value worked out at 22.5%. In the case of `C=CCc1c(C)nc(-c2ccccc2)nc1N/N=C/c1ccncc1`, the “hERG current change (%, negative = inhibition) at 1uM” value was -10.2%. `O=C1NCCCC1C(=O)N/N=C/c1ccc([N+](=O)[O-])cc1` (stereo not drawn): the “hERG current change (%, negative = inhibition) at 1uM” value is on record as 11.1%. Regarding `O=C(NC1CCCCC1)N1CCCCCCC1`, the “hERG current change (%, negative = inhibition) at 1uM” value is 12.1%.

With `CN(C)C(=O)Oc1cc(=O)n2c3c(cccc13)CCC2`, the “hERG current change (%, negative = inhibition) at 1uM” value came to 12.4%. As to `S=C1NC[C@H](CC2CCCCC2)N1CCc1cccc2ccccc12`, the “hERG current change (%, negative = inhibition) at 1uM” value is 13.2%.

Take `Cc1ccc(CSc2ccc(-c3ccco3)nn2)cc1`: the “hERG current change (%, negative = inhibition) at 1uM” value turned out to be 8.32%. Consider `CCCN(CCC)C1Sc2ccc(C(=O)OC)cc2NC1=O` (stereo not drawn), for which the “hERG current change (%, negative = inhibition) at 1uM” value was -11%. As for `COC(=O)C1=C(c2cc3ccccc3o2)C[C@@H]2CC[C@H]1N2C(=O)NCc1ccc(F)cc1`, the figure is 3.38%; as for `COc1ccccc1N1CCN(C(=O)CN(c2ccc(C)c(C)c2)S(C)(=O)=O)CC1`, 3.23%; as for `O=C(Nc1ccnn1C1CCN(Cc2ccc(CO)o2)CC1)c1ccccc1`, -0.976%. As for `CCCN(CC(=O)Nc1ccccc1OC)C(=O)c1ccc(S(=O)(=O)NCc2ccco2)cc1`, the figure is 3.59%; as for `Cc1ccc2cc(CCNC(=O)c3ccc(S(=O)(=O)N4CCOCC4)cc3)c(=O)[nH]c2c1`, -21.8%. On to `COC(=O)c1ccc(C)c(NC(=O)C2COc3ccccc3O2)c1` (stereo not drawn), for which the “hERG current change (%, negative = inhibition) at 1uM” value is given as 10.7%. For the molecule `O=C(Cn1nc(Cc2ccncc2)c2ccccc2c1=O)Nc1cccnc1Cl`, the “hERG current change (%, negative = inhibition) at 1uM” value is 4.36%. In the case of `CCN1CCCC1CNCc1ccccc1OCc1ccc(F)cc1.Cl` (stereo not drawn), the “hERG current change (%, negative = inhibition) at 1uM” value is -21.4%. In the case of `COc1cccc(NC(=O)NNC(=O)CCc2ccc(O)c(O)c2)c1`, the “hERG current change (%, negative = inhibition) at 1uM” value was 17.2%. With `O=C(CSc1nnc(NC(=O)c2cccc(F)c2)s1)NC1CCCC1` the figure was 13%. As for `CCOc1ccc(/C=N/NC(=O)c2ccc(O)cc2)cc1CN1CC2CC(C1)c1cccc(=O)n1C2` (stereo not drawn), the figure is 8.24%. Turning to `COC(=O)CSc1nc2ncccc2[nH]1`, the “hERG current change (%, negative = inhibition) at 1uM” value is listed as -0.295%.

As for `O=C(CCC(=O)OCc1ccc([N+](=O)[O-])cc1)Nc1ccc(F)cc1`, the “hERG current change (%, negative = inhibition) at 1uM” value is recorded as 10.4%. As for `CCc1ccc(N2C(=O)CC(N3CCC(C(=O)OC)CC3)C2=O)cc1` (stereo not drawn), the figure is 4.68%. Turning to `CC1(C)NCCN2C(=O)CSC21.Cl` (stereo not drawn), the “hERG current change (%, negative = inhibition) at 1uM” value is reported as 10.3%. Consider `CC1(c2nnc(-c3ccncc3)o2)CC(c2cccnc2)=NO1` (stereo not drawn), for which the “hERG current change (%, negative = inhibition) at 1uM” value was found to be 22.1%. As for `O=C(/C=C/c1ccc(N2CCC(c3ccccc3)=N2)cc1)c1ccccc1`, the “hERG current change (%, negative = inhibition) at 1uM” value is 1.77%.

For `O=C(COC(=O)CNC(=O)c1ccccc1)NCCc1ccccc1`, the “hERG current change (%, negative = inhibition) at 1uM” value is on record as -0.342%.

Turning to `CCC1CCCCN1C(=O)COC(=O)CSc1ccc(C(N)=O)cc1[N+](=O)[O-]` (stereo not drawn), the “hERG current change (%, negative = inhibition) at 1uM” value is reported as 4.3%.

Take `CCc1ccc(CN2CCN(C(=O)c3ccco3)CC2)cc1.O=C(O)C(=O)O`: the “hERG current change (%, negative = inhibition) at 1uM” value worked out at 5.48%. With `O=C(OCCN1CCN(c2ncc(C(F)(F)F)cc2Cl)CC1)c1ccc(Cl)cc1` the figure was 12%; with `CCOC(=O)c1[nH]ncc1CN1CCCC(C(=O)c2ccc(C(C)(C)C)cc2)C1` (stereo not drawn), 6.55%; with `COc1ccc(NC(=O)CSc2nnc(Cc3ccc(C)cc3)c(=O)n2N)cc1`, 3.26%. Regarding `Cc1onc(-c2ccccc2Cl)c1C(=O)Nc1ccc(-c2nnc3n2CCCCC3)cc1`, the “hERG current change (%, negative = inhibition) at 1uM” value was determined as 3.11%. With `Cc1nccn1CCN(C)Cc1cn(Cc2ccccc2)nc1-c1ccc2c(c1)OCO2`, the “hERG current change (%, negative = inhibition) at 1uM” value is -8.22%. Regarding `Cc1ccc(C)c(N2CCN(CC(=O)Nc3ccc4[nH]c(=O)[nH]c4c3)CC2)c1`, the “hERG current change (%, negative = inhibition) at 1uM” value turned out to be 2.63%. As for `COC(=O)c1cn(CCOc2ccccc2)c2ccccc12`, the figure is 7.42%. As for `CCSc1nc2c([nH]c3ccccc32)c(=O)n1C`, the figure is 4.49%. As for `Cc1ccccc1CNC(=O)COc1ccccc1`, the figure is 12.3%; as for `CCc1ccc(Nc2ncc3c(n2)CC(c2ccc(OC)cc2)CC3=O)cc1` (stereo not drawn), 14.4%; as for `C#CCOCCOCCOCCNc1nc(N2CCN(C(=O)[C@H]([C@@H](C)CC)n3cc([C@@H](N)CC(C)C)nn3)CC2)nc(N2CCN(C(=O)[C@H](CCCCN)n3cc([C@@H](N)C(C)CC)nn3)CC2)n1.Cl` (stereo partly drawn), 14.4%. Turning to `COCCn1c(C)cc(C(=O)CSc2nc3ccccc3c(=O)n2Cc2ccco2)c1C`, the “hERG current change (%, negative = inhibition) at 1uM” value was 2.93%. Consider `O=C1/C(=C/c2cccc(F)c2)Oc2cc(O)ccc21`, for which the “hERG current change (%, negative = inhibition) at 1uM” value is 13.2%. For `CC(=O)N(C1=NCCCS1)c1ccccc1Cl`, the “hERG current change (%, negative = inhibition) at 1uM” value is 11.5%. As for `Cc1cc(C)nc(NC2=NCC(=O)N2c2ccc(F)c(Cl)c2)n1`, the figure is 5.25%; as for `Cc1noc(C)c1COc1ccccc1C(=O)NNC(=O)c1ccc(F)cc1`, 13.9%.

On to `CC(C)OCCCn1c(SCC(=O)N2CCCC2=O)nc2ccccc2c1=O`, for which the “hERG current change (%, negative = inhibition) at 1uM” value is 7.56%. As for `CCS(=O)(=O)CCSc1nc(C)cc(C)c1C#N`, the “hERG current change (%, negative = inhibition) at 1uM” value is listed as 9.97%.

For the molecule `CCCCCCOc1ccc(/C=N/NC(=O)C2CC2)cc1`, the “hERG current change (%, negative = inhibition) at 1uM” value was 12.4%. Take `COc1cc(NC(=O)COC(=O)/C=C/c2ccc(OC)c(OC)c2)cc(OC)c1`: the “hERG current change (%, negative = inhibition) at 1uM” value was determined as 2.06%. With `COCCn1c(-c2ccc(OC(F)(F)C(F)C(F)(F)F)cc2)nc2c1c(=O)[nH]c(=O)n2CC(C)C` (stereo not drawn) the figure was 0.184%; with `CN(Cc1ccccc1F)C(=O)CN1CCN(S(=O)(=O)c2ccc3c(c2)OCCCO3)CC1`, 0.175%; with `CCCCC(Sc1nc(N)c(NC(=O)c2ccco2)c(=O)[nH]1)C(=O)O` (stereo not drawn), 10.8%. As for `Cc1nn(Cc2ccc(Cl)c(Cl)c2)c(C)c1NC(=O)c1cc(-c2ccc3c(c2)OCO3)on1`, the “hERG current change (%, negative = inhibition) at 1uM” value amounted to 12.1%. As for `C=CCN(CC=C)S(=O)(=O)c1ccc(NC(=S)NC(=O)c2ccco2)cc1`, the figure is 10.3%; as for `COc1ccccc1CNC(=O)CN(C)S(=O)(=O)c1ccc(F)cc1`, 12.6%.

The record behind these values is PMC4336329 (PLoS ONE, 2015).
